# Experimental data from article PMC4336329 (PLoS ONE, 2015).
# Among all 310,000 compounds or so, about 14,000 (4.5%) showed an effect of 50% or more. Effects have a minus sign here. Some of the results follow.
# Biological target: human ether-à-go-go-related gene (hERG) potassium channel (human, UniProt Q12809)
# Assay: primary screen, population patch clamp on CHO cells stably expressing hERG
# 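Further: peak tail current of the secondary pulse compared with the same well before compound.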
# Sequence of human ether-à-go-go-related gene (hERG) potassium channel (Q12809 whole entry, looked up): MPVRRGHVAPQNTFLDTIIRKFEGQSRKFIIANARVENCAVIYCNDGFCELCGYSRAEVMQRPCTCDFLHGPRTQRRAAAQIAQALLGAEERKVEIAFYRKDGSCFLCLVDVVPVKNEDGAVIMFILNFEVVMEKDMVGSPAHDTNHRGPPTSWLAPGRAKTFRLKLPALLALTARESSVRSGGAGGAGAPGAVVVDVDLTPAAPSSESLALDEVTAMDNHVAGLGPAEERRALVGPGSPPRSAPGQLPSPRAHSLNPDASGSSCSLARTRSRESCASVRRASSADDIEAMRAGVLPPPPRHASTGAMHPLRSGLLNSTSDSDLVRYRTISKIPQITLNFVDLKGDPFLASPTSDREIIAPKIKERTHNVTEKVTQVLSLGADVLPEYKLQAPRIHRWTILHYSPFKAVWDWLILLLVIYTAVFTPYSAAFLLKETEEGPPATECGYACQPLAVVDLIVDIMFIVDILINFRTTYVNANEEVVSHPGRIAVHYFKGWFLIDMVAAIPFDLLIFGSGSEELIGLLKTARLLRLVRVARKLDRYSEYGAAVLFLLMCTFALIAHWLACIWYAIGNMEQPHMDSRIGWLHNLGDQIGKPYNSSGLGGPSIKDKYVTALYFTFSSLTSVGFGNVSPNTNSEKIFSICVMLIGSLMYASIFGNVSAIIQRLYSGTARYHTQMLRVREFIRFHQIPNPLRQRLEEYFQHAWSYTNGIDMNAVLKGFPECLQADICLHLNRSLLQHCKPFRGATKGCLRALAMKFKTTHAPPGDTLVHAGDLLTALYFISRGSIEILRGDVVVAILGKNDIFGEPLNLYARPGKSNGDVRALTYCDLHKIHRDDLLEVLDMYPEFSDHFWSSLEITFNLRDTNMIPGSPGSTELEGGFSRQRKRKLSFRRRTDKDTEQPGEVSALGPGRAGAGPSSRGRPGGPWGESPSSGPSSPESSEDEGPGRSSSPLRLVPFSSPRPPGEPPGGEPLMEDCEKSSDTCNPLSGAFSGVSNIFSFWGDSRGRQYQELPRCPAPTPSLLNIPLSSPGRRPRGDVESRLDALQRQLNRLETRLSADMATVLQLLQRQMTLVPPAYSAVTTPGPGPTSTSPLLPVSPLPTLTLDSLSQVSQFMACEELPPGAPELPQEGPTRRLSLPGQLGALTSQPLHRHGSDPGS
row,Compound,"hERG current change (%, negative = inhibition) at 10uM"
1,CCCCCNCc1ccc(OCc2ccc(Cl)nc2)c(OC)c1,-45.8%
2,CNCCCc1ccccc1.Cl,-38.7%
3,C/C(=N\NC(=O)CN1CCN(S(=O)(=O)c2ccc(C)cc2)CC1)c1cccnc1,-46.9%
4,Cc1ccc(C(=O)NC=C(Cl)Cl)cc1,0.39%
5,O=C(NCc1cccnc1)c1cccnc1-c1nc2ccccc2s1,-14%
6,C/C(CC(=O)Nc1ccc(Cl)cc1)=N\NC(=O)C(=O)N1CCCCC1,15.4%
7,CCN(C(=O)CSc1nc(N)cc(N)n1)C1CCS(=O)(=O)C1 (centres unmarked),7.13%
8,CCC(CC)C(=O)Nc1cccc(C(=O)Nc2nnc(C)s2)c1,21.1%
9,Fc1ccc(NC(=S)Nc2ccccc2Cl)cc1,-4.83%
10,CCOC(=O)c1sc(N(C)C(C)=O)nc1C,15.9%
11,Cc1ccc(/C=C2\SC(=S)N(CCC(=O)N3CCCCC3)C2=O)cc1,14.2%
12,C[C@H](NC(=O)OC(C)(C)C)c1nnc(SCC(=O)Nc2cccc(Cl)c2)o1,-16.1%
13,CCC(C)C(NC(=O)C1CCC(C)CC1)C(=O)Nc1ccc(OC)cc1OC (centres unmarked),-4.26%
14,O=C(OCC(=O)c1cccs1)c1ccc(NC(=O)c2ccco2)cc1,-2.14%
15,O=C(N1CCN(c2ccccn2)CC1)N1c2ccccc2Sc2ccccc21,11.1%
16,CCC(CC)C(=O)OCC(=O)Nc1ccc(S(=O)(=O)N2CCOCC2)cc1OC,-42.1%
17,CC(C)C(=O)Nc1ccc(NC(=O)c2ccc([N+](=O)[O-])cc2Cl)cc1,5.02%
18,COC(=O)c1ccncc1C(=O)Nc1ccc(OC)cc1,0.284%
19,Brc1ccc2c(c1)C(c1cccs1)=NNC(c1cccnc1)=N2,-14.5%
20,Cn1c(Br)nc2c1c(=O)n(Cc1ccccc1)c(=O)n2C,-10.2%
21,CC1(C)Cc2c(cnn2-c2ccc(F)cc2)C(NC(=O)Cn2cncn2)C1 (centres unmarked),7.61%
22,O=C(O)c1ccc2c(=O)n3c(nc2c1)/C(=C/c1ccccc1OC(F)F)CC3,19%
23,CCOC(=O)c1c(S(=O)(=O)Nc2ccc(C)c(F)c2)c(C)n(C)c1C,-2.76%

row,Compound,"hERG current change (%, negative = inhibition) at 10uM"
1,CCOc1ccccc1CNc1ncnc2ccc(-c3c(C)noc3C)cc12,-5.04%
2,CCn1nc(NC(=O)C(C)C)c2cc3ccc(C)cc3nc21,-0.435%
3,CC(C)(C)c1nn(-c2ccccc2)c2nc(Cl)c(C=O)cc12,17.8%
4,COC(=O)c1cc(C(O)(C(=O)OC)C(F)(F)F)c(/N=C/N(C)C)s1 (centres unmarked),7.12%
5,C=CCN=c1scc(C)n1/N=C/c1ccc(O)c(O)c1,17.7%
6,CC1CCN(C(=O)CSc2nnc(-c3ccc(S(=O)(=O)N4CCOCC4)cc3)n2C)CC1,-4.38%
7,N#Cc1ccc(COn2nnc3ccccc32)cc1,-11.1%
8,Clc1ccccc1OCc1nnc(-c2ccccc2)o1,19.9%
9,COc1ccccc1NC(=S)N1CCCCCC1,7.14%
10,O=C1CN(C(=O)/C=C/c2ccc(Br)cc2)CCN1,1.28%
11,CCCCOC(=O)c1ccc(N/C(=N\S(=O)(=O)c2ccccc2)c2ccccc2)cc1,-3.41%
12,Cn1c(Cn2nnc3ccccc32)nnc1SCC(=O)N1c2ccccc2CCc2ccccc21,-23.6%
13,COc1ncccc1-c1nnn(-c2ccccc2)n1,7.2%
14,C[N+](C)(C)CC(=O)O.[Cl-],0.583%
15,Cc1ccc(NC2CCCN(C(=O)C3CCCCC3)C2)cc1C (centres unmarked),3.03%
16,COC(=O)CCN(c1ccccc1)S(=O)(=O)c1cc(-c2cc(C)no2)ccc1OC,-25.4%
17,CC(NC(=O)CN(C)Cc1ccc(Br)cc1)c1ccccc1 (centres unmarked),-19.3%
18,CCCNC(=O)CCn1cc(-c2ccc(OC)cc2)nc1CCN,12.6%
19,N#C/C(=C/c1ccc(O)c(O)c1)C(=O)NCc1ccc(Cl)cc1,-6.5%
20,c1cn(-c2ccc(-c3ccnc4ncnn34)cc2)cn1,-27.2%
21,COc1ccc(S(=O)(=O)Nc2ccc(CC#N)cc2)cc1,14.9%
22,Cc1cc2c(c(SCC(=O)NCc3ccc(Cl)cc3)n1)C(=O)OC2,13.7%
23,COC(=O)c1ccc(C2C(C#N)=C(C)NC3=C2C(=O)CC(C)(C)C3)cc1 (centres unmarked),2.72%

row,Compound,"hERG current change (%, negative = inhibition) at 10uM"
1,CCOc1ccc2nc(NS(=O)(=O)c3ccc(NC(C)=O)cc3)sc2c1,-8.55%
2,CCc1ccccc1NC(=O)[C@@H]1CCC(=O)N1C1OC(=O)c2c1ccc(OC)c2OC (some centres unmarked),1.29%
3,Cc1ccc(C)c(-c2ccc(=O)n(Cc3cccc(Br)c3)n2)c1,10.7%
4,CCOC(=O)NC(Nc1nnc(SCC)s1)(C(F)(F)F)C(F)(F)F,20%
5,Cc1ccc(C(=O)CSC2=C(C#N)C(c3ccco3)CC(=O)N2)c(C)c1 (centres unmarked),-43.6%
6,O=C(NNC(=O)c1n[nH]c(=O)c2ccccc12)c1ccc(Br)cc1,-14.1%
7,CC(C)CCNC(=O)c1ccc(CS(=O)(=O)Cc2ccccc2F)o1,-10.5%
8,O=C(NN1C(=O)NC2(CCCCC2)C1=O)c1ccc(-c2ccc(Cl)cc2)o1,-27.2%
9,CCc1cc2cc(C)cc(C)c2[nH]c1=S,7.61%
10,Cc1ccc(N(C)/N=C/c2ccc(Cl)cc2Cl)nn1,19.9%
11,Cc1ccccc1CN1C(=O)C(O)(CC(=O)c2ccncc2)c2ccccc21 (centres unmarked),14%
12,COc1ccc(Cc2nnc(NC(=O)C3CCN(C(=O)c4ccco4)CC3)s2)cc1,-8.48%
13,COc1ccc(N2C(=O)Cc3ccccc3C2=O)cc1,24.7%
14,CC(C)CCNc1nc2c(cc1C#N)COC(C)(C)C2,-7.61%
15,COc1ccc(CNC(=O)c2cc3c(=O)n4ccccc4nc3n(Cc3cccnc3)c2=N)cc1,-58.6%
16,CC1(C)CC(=O)c2sc(NC(=O)CCS(=O)(=O)c3ccccc3)nc2C1,-5.11%
17,CC1Cc2cc(/C(O)=C3\C(=O)C(=O)N(CCN4CCOCC4)C3c3ccccc3F)ccc2O1 (centres unmarked),3.69%
18,COc1cccc(CN(C)C(=O)C2CCN(S(=O)(=O)c3cccs3)CC2)c1OC,-12.1%
19,Cc1onc(-c2c(Cl)cccc2Cl)c1C(=O)NCCc1ccc(S(N)(=O)=O)cc1,-21.6%
20,COc1c(C)cc(C(=O)C2CCCN(C(=O)c3snnc3C)C2)cc1C (centres unmarked),-4.57%
21,Cc1onc(-c2ccccc2)c1C(=O)Nc1sc2c(c1C#N)CCC(C)C2 (centres unmarked),6.74%
22,NS(=O)(=O)c1ccc(CNC(=S)Nc2ccc(Cl)c(Cl)c2)cc1,4.6%
23,COc1ccc(CNCc2cc3c(C(C)(C)C)nn(-c4ccccc4)c3[nH]c2=O)cc1,-24%

row,Compound,"hERG current change (%, negative = inhibition) at 10uM"
1,Fc1ccc([C@@H]2CCNC[C@H]2COc2ccc3c(c2)OCO3)cc1.O=C(O)/C=C\C(=O)O,-37.1%
2,CCOC(=O)CCCNC(=O)COC(=O)CCC(=O)c1ccc(F)cc1,3.21%
3,CN(CCOC(=O)c1ccc2c(c1)OCCO2)Cc1ccccc1.Cl,-15.1%
4,CCOC(=O)C1CCN(S(=O)(=O)C(F)(F)c2nc3ccccc3s2)CC1,-19.8%
5,CC1(/[N+]([O-])=C/c2cccc(Cl)c2)CCCCC1=O (centres unmarked),4.74%
6,COc1cc(/C=C2\CC(C(C)(C)C)C/C(=C\c3cc(OC)c(OC)c(OC)c3)C2=O)cc(OC)c1OC (centres unmarked),15.3%
7,CCCOc1ccc(Oc2cc(C)nc(SC)n2)nn1,11.3%
8,CN(Cc1ccccc1)S(=O)(=O)c1ccc2c(c1)OCCO2,-21%
9,Cc1cc(OCc2nc3ccccc3s2)ccc1N,-1.17%
10,COc1cccc(N2C(=O)CC(N3CCC(c4nc5ccccc5[nH]4)CC3)C2=O)c1 (centres unmarked),-12.7%
11,Cc1ccc(S(=O)(=O)N(C)C)cc1NC(=O)c1cc(C(C)(C)C)nn1Cc1ccccc1,6.36%
12,[O-]/[N+](=C\c1ccccc1)[C@@H]1CCCC[C@@H]1/[N+]([O-])=C/c1ccccc1,10.7%
13,Cc1oc(-c2ccc(-c3ccccc3)cc2)nc1CN(CCO)C(C)C,-44.1%
14,Cc1c2c(nc3nc4ccccc4n13)CC(C)(C)CC2=O,-34.7%
15,CCOc1ccc(-c2noc(-c3cccnc3)n2)cc1OCC,13.7%
16,Cc1cc(N2CCNCC2)nc2ccccc12,-7.37%
17,CCC(C(=O)NC(C)(C)C)N(Cc1ccco1)C(=O)CNS(=O)(=O)c1ccc(OC)cc1 (centres unmarked),7.49%
18,O=C(CO/N=C/c1cccc([N+](=O)[O-])c1)NC1CCCCC1,-14.4%
19,CCOc1ccc(C(=O)O)cn1,20.6%
20,O=C(NCC(c1ccco1)N1CCN(c2ccccc2)CC1)C(=O)NC1CC1 (centres unmarked),3.4%
